According to PubChem BioAssay (Tox21):
Values joined by “and” are separate entries in the source; they are usually repeats but may differ in a detail not shown here. Identical values can stand only once. Inconclusive means that the source gave no clear call. Such entries were picked first, then a sample of the others. Potencies beside an inconclusive call are fits to weak or partial responses and may not hold up. Active and inactive are the calls of the source. Unless noted, the call rests on the fitted dose curve; in most records, active means well fitted inhibition curve with a large enough effect in the signal ratio in the repeat runs; inconclusive means weak or mixed curves, or effect the other way; inactive means flat fitted curve, though single readings scatter; the % refers to the signal ratio.

Test: qHTS assay for small molecule disruptors of the mitochondrial membrane potential - cell viability (AID 720634; calls by dose curve; further: nearly all actives have a fitted effect of over 20% in size;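 on activity change, negative = cytotoxicity: human HepG2 liver cancer cells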)
Details: HepG2 viability, ATP luminescence (CellTiter-Glo), 1 h; series mostly up to 83.2 µM; activity change, negative = cytotoxicity: at the top concentration
How it was run: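 HepG2 cells, 2,000 per well, attached overnight, then treated 1 hr at 37 C, 5% CO2. Viability read as ATP by CellTiter-Glo luminescence after 30 min at room temperature. Read in the same wells as the m-MPI membrane-potential dye assay.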
On the % scale 0 is the no-effect control and ±100 the full control effect; potency means the concentration at half of the fitted maximal effect; tags describe the fitted curve by direction and shape or compound fluorescence and quenching.

Row | SMILES | Potency | activity change, negative = cytotoxicity
1 | COC(=O)N[C@H](C(=O)N[C@@H](Cc1ccccc1)[C@@H](O)CN(Cc1ccc(-c2ccccn2)cc1)NC(=O)[C@@H](NC(=O)OC)C(C)(C)C)C(C)(C)C | inconclusive: 37.6 µM [cytotoxic, partial curve, poor fit] | –
2 | COc1cc2c(cc1N)oc1ccccc12 | inconclusive: 55.6 µM [cytotoxic, partial curve, poor fit] | –
3 | CN(C)C/C=C(/c1ccc(Br)cc1)c1cccnc1 | – | inactive: -3.48%
4 | c1ccc2c(CC3=NCCN3)cccc2c1 | inconclusive: 29.8 µM [cytotoxic, single point] | –
5 | CC(=O)OC[C@H]1O[C@@](COC(C)=O)(O[C@H]2O[C@H](COC(C)=O)[C@@H](OC(C)=O)[C@H](OC(C)=O)[C@H]2OC(C)=O)[C@@H](OC(C)=O)[C@@H]1OC(C)=O | inactive | –

Test: qHTS assay for small molecule disruptors of the mitochondrial membrane potential (AID 720635)
Details: HepG2 mitochondrial membrane potential, Mito-MPS dye ratio; ratio activity, negative = MMP loss: at 83.2 µM (top of the series) unless noted
How it was run: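 HepG2 cells (2,000/well) attached overnight at 37C, then took compound for 1 hr at 37C, 5% CO2. Mito-MPS dye was added for 30 min; fluorescence was read at 490/535 nm (monomers) and 540/590 nm (aggregates).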

Row | SMILES | Potency | ratio activity, negative = MMP loss
6 | COc1ccnc(CS(=O)c2nc3ccc(OC(F)F)cc3[nH]2)c1OC (centres undefined) | inconclusive: 42.2 µM [activator, single point] | –
7 | CCO[Si](CCC#N)(OCC)OCC | inactive | –
8 | FC(F)(F)c1ccc(Cl)c(Cl)c1 | inactive | –
9 | Cc1cc(OI)c(C(C)C)cc1-c1cc(C(C)C)c(OI)cc1C | – | inconclusive: -20.6%
10 | NCC(=O)O | – | inactive: 2.74%
11 | CC(C)(C)C(=O)C(Oc1ccc(Cl)cc1)n1ccnc1 (centres undefined) | inconclusive: 33.5 µM [inhibitor, single point] | –
12 | Fc1ccccc1-c1ccccc1 | – | inconclusive: -23.8% [at 95.3 µM]
13 | C=CCc1cc(OC)c(O)c(C(=O)NCCO)c1 | – | inactive: -12.1%
14 | CCOC(=O)c1ccccc1 | – | inactive: 12.3%
15 | C=CC(C)(O)CCCC(C)CCCC(C)CCCC(C)C (centres undefined) | – | inconclusive: -25.3%
16 | O=C1[C@H](CC[C@H](O)c2ccc(F)cc2)[C@@H](c2ccc(O)cc2)N1c1ccc(F)cc1 | active: 23.7 µM | –
17 | C=CC(=O)CC | inconclusive: 31.4 µM [activator, full curve] | –
18 | N#CCN(CC#N)CCN(CC#N)CC#N | – | inconclusive: 18%
19 | CC(C)(C)C(=O)OCOP(=O)(COCCn1cnc2c(N)ncnc21)OCOC(=O)C(C)(C)C | inconclusive: 9.44 µM [activator, partial curve] | –
20 | N#CCC(=O)NN | – | inactive: 11.2%
21 | CC(C)OC(C)C | inconclusive: 77.3 µM [inhibitor, single point] | –
22 | COC(=O)N[C@H](C(=O)N[C@@H](Cc1ccccc1)[C@@H](O)CN(Cc1ccc(-c2ccccn2)cc1)NC(=O)[C@@H](NC(=O)OC)C(C)(C)C)C(C)(C)C | inconclusive: 10.6 µM [activator] | –
23 | O=C(NS(=O)(=O)/C=C/c1cccs1)c1ccc(F)cc1Br | active: 61.1 µM | –
24 | CN1CCC[C@@H]1c1cccnc1 | – | inactive: -12.4%
25 | F[B-](F)(F)F | inactive and inconclusive: 876 nM [activator, partial curve] | –

Row | SMILES | Potency | ratio activity, negative = MMP loss
26 | CC(C)(O)C(=O)O | – | inconclusive: 4.15%
27 | Cn1c(=O)c2[nH]cnc2n(C)c1=O | – | inconclusive: 0.765%
28 | CC(=O)SCc1ccco1 | – | inactive: 10%
29 | O=S(=O)(O)c1ccc2ccccc2c1 | – | inconclusive: 4.05%
30 | C=C(C)CS(=O)(=O)O | inconclusive: 6.11 µM [activator, single point] | –
31 | COc1cc2c(cc1N)oc1ccccc12 | inconclusive: 55.6 µM [inhibitor, partial curve] | –
32 | O=C(O)Cc1cccc(-c2cc(CCCCCCc3ccc(O[C@H]4O[C@H](CO)[C@@H](O)[C@H](O)[C@@H]4O)c(-c4cccc(CC(=O)O)c4)c3)ccc2O[C@H]2O[C@H](CO)[C@@H](O)[C@H](O)[C@@H]2O)c1 | – | inconclusive: -11.1%
33 | O=C(CCCN1CCC(O)(c2ccc(Br)cc2)CC1)c1ccc(F)cc1 | – | inconclusive: 17.4% [at 39.1 µM]
34 | CN(C)C/C=C(/c1ccc(Br)cc1)c1cccnc1 | inconclusive: 10.6 µM [activator, partial curve, poor fit] | –
35 | CCCC(=O)Nc1ccc(OCC(O)CNC(C)C)c(C(C)=O)c1 (centres undefined) | – | inconclusive: -22.5% [at 39.1 µM]
36 | CCC(C)OC(=O)N1CCCCC1CCO (centres undefined) | – | inconclusive: 25.9%
37 | c1ccc2c(CC3=NCCN3)cccc2c1 | – | inconclusive: -2.15%
38 | CCCCNc1ccc(C(=O)OCCOCCOCCOCCOCCOCCOCCOCCOCCOC)cc1 | active: 3.2 µM | –
39 | CC(=O)OC[C@H]1O[C@@](COC(C)=O)(O[C@H]2O[C@H](COC(C)=O)[C@@H](OC(C)=O)[C@H](OC(C)=O)[C@H]2OC(C)=O)[C@@H](OC(C)=O)[C@@H]1OC(C)=O | inactive | –
40 | CCCCCCCC(=O)OCC(O)CO (centres undefined) | – | inconclusive: -21.7%
41 | CCOc1ccc(NS(=O)(=O)c2ccc(N)cc2)nn1 | – | inactive: 8.24%
42 | CN(C)Cc1cc(CN(C)C)c(O)c(CN(C)C)c1 | inactive | –
43 | CCCCCCCCC/C=C/CC1CC(=O)OC1=O (centres undefined) | inconclusive: 61.1 µM [fluorescent, partial curve, poor fit] | –
44 | Nc1cccc([N+](=O)[O-])c1 | – | inconclusive: -2.85%
